Source: the supplement of paper PMC12217912
This is one part of the list. The full chains were built here from the parent and the listed change. Values near 0.05 are background.

B1: TEV protease; numbered along this chain (parent)
chain: MGESLFKGPRDYNPISSSICHLTNESDGHTTSLYGIGFGPFIITNKHLFRRNNGTLVVQSLHGVFKVKDTTTLQQHLVDGRDMIIIRMPKDFPPFPQKLKFREPQREERICLVTTNFQTKSMSSMVSDTSCTFPSGDGIFWKHWIQTKDGQCGSPLVSTRDGFIVGIHSASNFTNTNNYFTSVPKNFMELLTNQEAQQWVSGWRLNADSVLWGGHKVFMVKPEEPFQPVKEATQL

Variants of: B1
Assay: raw area under fraction-flipped curve 0-4 h after induction (AUC4h, not background-subtracted), DNA-recorder readout of cleavage of the substrate (dimensionless); higher = more cleavage of the substrate by the protease variant
Conditions: temperature: 34 °C; time window: 0-4 h after rhamnose induction
Protocol: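 In vivo DNA recorder in E. coli TOP10(DE3) ΔrhaA at 34 °C. Each TEVp single-site mutant (parent TEVp 0) is paired with a single-site variant of the 7-mer TEVs (canonical ENLYFQ|S). The substrate sits between flexible linkers in a Bxb1-sfGFP-TEVs-SsrA fusion, so cleavage stabilises Bxb1 and speeds flipping of a recombination array, read by NGS. The value is the raw area under the fraction-flipped curve over 0-4 h after rhamnose induction (AUC4h), with ≥20 reads per time point. It is not background-subtracted; inactive controls average about 0.047.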
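Note: Bxb1 expression induced with 0.2% (w/v) L-rhamnose at OD600 near 0.5, cultures sampled hourly, flipped fraction per protease–substrate barcode pair counted by paired-end Illumina sequencing.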

Row | Variant | area with substrate CNLYFQS | area with substrate GNLYFQS | area with substrate HNLYFQS | area with substrate INLYFQS | area with substrate KNLYFQS | area with substrate LNLYFQS | area with substrate MNLYFQS | area with substrate PNLYFQS | area with substrate RNLYFQS | area with substrate SNLYFQS | area with substrate TNLYFQS | area with substrate WNLYFQS | area with substrate YNLYFQS | area with substrate NNLYFQS | area with substrate VNLYFQS | area with substrate FNLYFQS | area with substrate QNLYFQS | area with substrate DNLYFQS
1 | S121A | 0.0433 | 0.0646 | 0.0651 | 0.0651 | 0.0723 | 0.0662 | 0.0646 | 0.0573 | 0.0597 | 0.0762 | 0.0697 | 0.0491 | – | – | – | – | – | –
2 | S121E | 0.0606 | 0.0676 | – | 0.0579 | 0.0552 | 0.0692 | – | 0.075 | – | – | – | – | 0.0523 | – | – | – | – | –
3 | S121Y | 0.0595 | 0.0802 | 0.0557 | 0.074 | – | – | – | 0.0808 | – | 0.0693 | 0.0621 | – | – | 0.0683 | – | – | – | –
4 | M122K | 0.0622 | 0.0763 | 0.0506 | – | 0.0627 | – | – | – | – | – | 0.0528 | 0.0553 | 0.0664 | 0.0891 | 0.0504 | – | – | –
5 | M122P | 0.0761 | – | 0.0606 | 0.0536 | 0.0609 | 0.0667 | – | 0.056 | – | 0.0731 | 0.0722 | 0.0643 | – | – | 0.0623 | – | – | –
6 | M122Y | 0.0616 | 0.0723 | 0.0699 | – | 0.0788 | – | 0.0517 | 0.0694 | – | 0.0848 | 0.0552 | 0.0701 | 0.0583 | 0.0544 | 0.0712 | – | – | –
7 | S123T | 0.0744 | 0.0581 | – | – | 0.0658 | 0.0622 | 0.0738 | 0.065 | – | 0.0582 | 0.0506 | – | 0.0701 | – | 0.0603 | 0.0404 | 0.0673 | –
8 | M125L | 0.0759 | 0.0666 | 0.0678 | – | – | – | – | 0.0651 | 0.0983 | – | 0.0637 | 0.061 | – | 0.0634 | – | 0.0503 | – | –
9 | V126G | 0.0614 | 0.0596 | – | – | 0.0623 | 0.073 | – | – | – | – | – | 0.0672 | – | 0.0622 | 0.0716 | – | – | 0.0692
10 | D128H | 0.0818 | – | 0.0752 | – | – | 0.076 | 0.0676 | 0.0901 | 0.0604 | 0.0816 | 0.0752 | 0.0655 | 0.07 | 0.0594 | – | 0.0857 | 0.0598 | –
11 | T129P | 0.0674 | 0.0619 | 0.0554 | 0.0652 | 0.0731 | 0.0663 | – | 0.0597 | – | 0.0745 | 0.0598 | 0.0512 | 0.0589 | – | – | 0.0618 | 0.0889 | –
12 | T132F | 0.0394 | – | 0.048 | 0.0672 | – | 0.0089 | 0.06 | 0.0542 | – | 0.0825 | 0.048 | 0.0578 | – | 0.0501 | 0.0548 | 0.0461 | – | –
13 | T132G | 0.0623 | – | 0.0574 | 0.0541 | – | – | 0.0719 | 0.07 | – | 0.0568 | 0.064 | 0.0556 | 0.0559 | 0.0752 | – | – | – | –
14 | T132S | 0.0736 | 0.0958 | 0.0633 | – | 0.0711 | 0.0731 | – | – | – | – | 0.0749 | 0.0591 | 0.0601 | – | 0.0523 | – | – | –
15 | T132Y | 0.062 | 0.0555 | – | 0.0446 | 0.0597 | – | 0.0728 | 0.0607 | – | 0.0648 | – | 0.0495 | – | – | – | 0.0518 | – | –
16 | F133D | 0.058 | 0.0731 | 0.0627 | 0.0614 | – | 0.0775 | – | 0.0713 | 0.0593 | 0.0784 | 0.0698 | 0.0669 | – | 0.076 | – | 0.0582 | – | –
